Measured values reported in publication PMC4336329 (PLoS ONE, 2015).
The campaign covered roughly 310,000 compounds. About 14,000 (4.5%) showed an effect of 50% or more. The effect is printed as a negative number. Some of the results follow.

These compounds were tested against human ether-à-go-go-related gene (hERG) potassium channel (human, UniProt Q12809) (assay: primary screen, population patch clamp on CHO cells stably expressing hERG).
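Further: peak tail current of the secondary pulse compared with the same well before compound.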

human ether-à-go-go-related gene (hERG) potassium channel, sequence (Q12809 whole entry, looked up): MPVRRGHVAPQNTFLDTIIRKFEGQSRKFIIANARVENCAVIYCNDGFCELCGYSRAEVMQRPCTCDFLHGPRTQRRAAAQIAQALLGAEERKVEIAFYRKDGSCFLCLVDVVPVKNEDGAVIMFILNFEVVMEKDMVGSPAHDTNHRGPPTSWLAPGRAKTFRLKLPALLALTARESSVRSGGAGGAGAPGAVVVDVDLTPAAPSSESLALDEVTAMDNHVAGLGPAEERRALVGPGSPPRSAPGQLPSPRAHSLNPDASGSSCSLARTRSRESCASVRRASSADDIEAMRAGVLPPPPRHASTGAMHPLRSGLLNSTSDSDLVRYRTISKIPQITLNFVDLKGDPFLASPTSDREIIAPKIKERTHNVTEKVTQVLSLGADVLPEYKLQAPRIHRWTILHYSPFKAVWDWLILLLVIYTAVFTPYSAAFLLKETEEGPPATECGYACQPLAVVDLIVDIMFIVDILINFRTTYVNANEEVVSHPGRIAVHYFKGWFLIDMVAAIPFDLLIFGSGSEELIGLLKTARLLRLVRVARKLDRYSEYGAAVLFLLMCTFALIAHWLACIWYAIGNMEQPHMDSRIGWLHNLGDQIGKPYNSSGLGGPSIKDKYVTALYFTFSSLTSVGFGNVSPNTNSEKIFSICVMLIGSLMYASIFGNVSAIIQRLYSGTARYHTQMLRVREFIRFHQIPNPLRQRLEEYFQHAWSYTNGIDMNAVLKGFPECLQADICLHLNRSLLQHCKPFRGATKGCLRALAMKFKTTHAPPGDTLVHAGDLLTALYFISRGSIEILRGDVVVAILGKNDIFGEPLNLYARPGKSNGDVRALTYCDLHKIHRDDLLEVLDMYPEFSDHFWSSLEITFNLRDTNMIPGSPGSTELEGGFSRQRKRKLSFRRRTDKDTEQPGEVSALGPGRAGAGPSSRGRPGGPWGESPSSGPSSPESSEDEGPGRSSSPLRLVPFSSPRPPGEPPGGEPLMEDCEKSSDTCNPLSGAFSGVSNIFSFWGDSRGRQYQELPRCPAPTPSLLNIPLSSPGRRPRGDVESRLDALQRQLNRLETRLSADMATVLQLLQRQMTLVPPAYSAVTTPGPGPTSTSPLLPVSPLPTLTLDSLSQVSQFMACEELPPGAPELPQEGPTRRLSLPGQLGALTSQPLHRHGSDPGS

Row | SMILES | hERG current change (%, negative = inhibition) at 10uM [%]
1 | C[C@H](NC(=O)c1cc2c([nH]c3ccccc32)c(-c2ccccc2)n1)C(=O)O | 11.8
2 | O=C(CNc1ccccc1Cl)c1ccc(Br)cc1 | -5.38
3 | O=C(c1ccc2c(c1)OCCO2)C1CCN(S(=O)(=O)c2ccc(F)cc2)CC1 | -29.5
4 | CN(C(=O)c1cncc(Br)c1)c1c(N)n(Cc2ccccc2)c(=O)[nH]c1=O | 5.77
5 | CN1CC(C(=O)O)Cc2c1ccc1ccccc21 (stereo not shown) | 13.9
6 | Cn1c(C(=O)OC(C(=O)NC2CCCCC2)c2ccncc2)cc2sccc21 (stereo not shown) | -0.943
7 | CCC(=O)NC(NC(=S)Nc1c(C)n(C)n(-c2ccccc2)c1=O)C(Cl)(Cl)Cl (stereo not shown) | 6.42
8 | COc1cccc(N2CCN(C(=O)C3CCCN(c4ncnc5c4nc4n5CCCCC4)C3)CC2)c1 (stereo not shown) | -81.7
9 | Cc1ccc(NCC(=O)N=Nc2c(O)n(C)c3ccccc23)cc1 | -15.6
10 | Cc1ccc(-n2c(C)nc3c(cnn3-c3ccc(F)cc3)c2=O)cc1 | 7.66
11 | Cc1cccc(NC(=O)NC2(C(=O)NCc3ccco3)CCCCC2)c1 | -33.8
12 | O=C(Cc1sc(Nc2ccccc2)nc1-c1ccccc1)NCc1ccccc1 | 25.6
13 | COc1cccc(C(=O)N(c2ccc(OC)cc2OC)C2C=CS(=O)(=O)C2)c1 (stereo not shown) | -0.147
14 | CCc1nnc(NC(=O)COc2ccccc2[N+](=O)[O-])s1 | -0.186
15 | COc1ccccc1CNC(=O)CSc1nc(-c2ccccc2)cn1N | -3.43
16 | Cn1c(SCc2ccc(F)cc2)nnc1-c1cccs1 | -15.5
17 | COc1ccc(C(=O)c2nccc3ccccc23)cc1 | 0.535
18 | COc1ccc(C(=O)Nc2cccc(NC(=O)c3cccs3)c2)cc1 | -7.05
19 | O=C(O)c1ccccc1-c1ccccc1C(=O)Nc1ccc2c(c1)[nH]c(=O)c1ccccc12 | 24.5
20 | Cc1ccc(NC(=O)NC(=O)CSc2nnnn2C)c(C)c1 | 2.01
21 | O=C1CC(c2ccccc2)SC(N(c2ccccc2)c2ccccc2)=N1 (stereo not shown) | -0.167
22 | O=C(O)c1ccc(/C=N/NC(=O)c2cc(-c3cccs3)nc3ccccc23)cc1 | 12.4
23 | Cc1cc(N2CCOCC2)nc(NCc2ccccc2)n1 | -35.4
24 | O=C(O)C1Nc2c(O)cc(Cl)c([N+](=O)[O-])c2C2C=CCC12 (stereo not shown) | 18.2
25 | CC1=Nc2ccccc2/C1=C/c1c(N)n2c(S(=O)(=O)C(C)C)nsc2nc1=O | 21.2
26 | CN1CCN(C(=O)c2ccc(CSc3nc4ccncc4n3Cc3ccc(F)cc3)cc2)CC1 | 0.727
27 | O=[N+]([O-])c1ccc(Cl)c(Cl)c1Cl | -5.28
28 | O=C(C1CCCN(S(=O)(=O)c2cnc[nH]2)C1)N1CCN(Cc2ccccc2)CC1 (stereo not shown) | 6.16

Row | SMILES | hERG current change (%, negative = inhibition) at 10uM [%]
29 | Cn1c(-c2ccc(Br)cc2)cnc1NCc1cccnc1 | -41.3
30 | CNC(=O)CC(=O)Nc1ccccc1C(=O)O | 27.5
31 | COc1ccc(CCNC(=O)c2c[nH]c3ccc(F)cc3c2=O)cc1OC | 17.6
32 | COc1ccc(C2c3ccc(O)cc3Oc3ncn(CCCO)c(=N)c32)cc1 (stereo not shown) | -22.8
33 | COc1cc(C(=O)NCc2nnc(SCC(=O)Nc3c(C)cc(C)cc3C)o2)cc(OC)c1OC | 14.4
34 | Cc1cc(C)cc(NC(=O)c2cccc(NC(=O)c3ccco3)c2)c1 | -25.4
35 | Cc1cc(C(=O)CSC(C)c2nc3ccccc3c(=O)[nH]2)c(C)n1C (stereo not shown) | 5.72
36 | COc1ccc(-c2nonc2NC(=O)c2oc3ccc(F)cc3c2C)cc1OC | 13.8
37 | O=C(NCC(=O)N1CCCC1)c1cccs1 | -5.03
38 | O=C(NC1CCCCC1)c1cc(F)cc2c1OCOC2 | 7.49
39 | CC(C)C1C(C#N)=C(N)SC(N)=C1C#N | 14.9
40 | O=C(CN(c1ccccn1)S(=O)(=O)c1ccc(F)cc1)Nc1ccc(F)cc1F | 2.34
41 | S=C1Nc2ccccc2Sc2ccc(Cl)cc21 | -3.77
42 | CCOC(=O)CSc1nc2sc3c(c2c(=O)n1-c1ccc(OC)cc1)CCN(C)C3 | -5.76
43 | CCCn1cc(CN2CCCC(C(=O)c3cccc(OC(C)C)c3)C2)c(C)n1 (stereo not shown) | -35.5
44 | O=c1ccccn1Cc1ccccc1F | 16.4
45 | Cc1ccc(-c2csc3nc(C(C)C)oc(=O)c23)c(C)c1 | 16.9
46 | COC(=O)c1ccc(C(=O)OC)c(NC(=O)CN(C)Cc2ccc(Cl)c(Cl)c2)c1 | 5.46
47 | Cc1ccc(C(C(=O)NCc2ccccc2)N(C(=O)c2csnn2)C2CC2)cc1 (stereo not shown) | -6.35
48 | Nc1c2c(nc3ccc(Br)cc13)N(C1CCCCC1)CC2.O=C(O)C(=O)O | -70.1
49 | CC(=O)c1ccc(NC(=O)c2ccc(N3C(=O)c4cccnc4C3=O)cc2)cc1 | 2.38
50 | COc1ccccc1-n1c(SCC(=O)NC2CCS(=O)(=O)C2)nc2cc([N+](=O)[O-])ccc21 (stereo not shown) | -16.2
51 | O=C(CSc1nc2ccccc2c(=O)[nH]1)N1CCN(c2ccccc2)CC1 | 14.1
52 | CC1CCCCC12NC(=O)N(CC(=O)NCC(=O)Nc1ccc(F)c(F)c1F)C2=O (stereo not shown) | 8.7
53 | O=C(NCCN1CCN(c2cccc(Cl)c2)CC1)C1CCCN(S(=O)(=O)c2cnc[nH]2)C1 (stereo not shown) | -3.12
54 | O=C(CC(c1cccs1)S(=O)(=O)c1ccccc1)c1ccc(F)cc1 (stereo not shown) | 9.53
55 | Cc1cc(C)c(S(=O)(=O)c2cccc(Br)c2C)c(=O)[nH]1 | 18.4
